Results published in US12203089B2, “Plants having increased tolerance to herbicides” (BASF SE, priority 2015, dated 2025).
Further values from the same series stand in other lists.

What was measured:
Type in all cases: in vivo
Settings in all cases: 7 days after treatment
Brassica napus wildtype [1] = experiment: Greenhouse herbicide tolerance, pre emergent
Experimental: (§1) T1/T2 transgenic plants of Brassica napus containing cellulose synthase sequences or mutated gene variants thereof are tested for improved tolerance to herbicides in greenhouse studies with azine herbicides. For the pre-emergence treatment, the herbicides are applied directly after sowing by means of finely distributing nozzles. The containers are irrigated gently to promote germination and growth and subsequently covered with transparent plastic hoods until the plants have rooted. This cover causes uniform germination of the test plants, unless this has been impaired by the herbicides. For post emergence treatment, the test plants are first grown to a height of 3 to 15 cm, depending on the plant habit, and only then treated with the herbicides. For this purpose, the test plants are either sown directly, and grown in the same containers or they are first grown separately and transplanted into the test containers a few days prior to treatment.
(§2) Herbicide injury evaluations are taken at 1, 2 and 3 weeks after treatment. Plant biomass reduction is rated on a scale of 0% to 100%, 0% being no reduction of biomass compared to untreated control, and 100% being complete absence of biomass.

[2] = tested on: Brassica napus expressing BnaA01g04600D (SEQ ID 21) variant G1012R; experiment: Greenhouse herbicide tolerance, pre emergent
Experimental: as §1, §2

Brassica napus wildtype [3] = experiment: 6-well plate injury test, seeds on vermiculite
Experimental: (§3) Transgenic Brassica napus plants are assayed for improved tolerance to azine herbicides like e. g. 6-cyclopentyl-N4-(2,3,4,5,6-pentafluorophenyl)-1,3,5-triazine-2,4-diamine in 6-well plates. Therefore, 5-6 T1 seeds are sown on vermiculite and watered with half-strength murashige skoog nutrient solution, pH 5.8 (Murashige and Skoog (1962) Physiologia Plantarum 15: 473-497). Compounds are dissolved in dimethylsulfoxid (DMSO) and added to the medium (final DMSO concentration 0.1%). Multi well plates are incubated in a growth chamber at 22° C., 75% relative humidity and 110 μmol Phot*m^−2*s^−1 with 14: 10 h light: dark photoperiod. Growth inhibition is evaluated seven to ten days after seeding in comparison to wild type plants. Plant injury is rated on a scale of 0% to 100%, 0% being no injury and 100% being complete death.

[4] = tested on: Brassica napus expressing BnaA03g52020D (SEQ ID 15) variant G1015R; experiment: 6-well plate injury test, T1 seeds on vermiculite
Experimental: as §3

[5] = tested on: Brassica napus expressing BnaA01g04600D (SEQ ID 21) variant G1012R; experiment: 6-well plate injury test, T1 seeds on vermiculite
Experimental: as §3

[6] = tested on: Brassica napus expressing BnaAnng01240D (SEQ ID 20) variant S1041L; experiment: Greenhouse herbicide tolerance, post emergent
Experimental: as §1, §2

## Nc1nc(Nc2c(F)c(F)c(F)c(F)c2F)nc(C2CCCC2)n1 [6-cyclopentyl-N4-(2,3,4,5,6-pentafluorophenyl)-1,3,5-triazine-2,4-diamine]
Brassica napus wildtype [1]; 3.9 g/ha
  average phytotox value: 26%
Brassica napus wildtype [1]; 7.8 g/ha
  average phytotox value: 21%
Brassica napus wildtype [1]; 15.6 g/ha
  average phytotox value: 52%
[2]; 1.95 g/ha
  average phytotox value: 26%
[2]; 3.9 g/ha
  average phytotox value: 18%
[2]; 7.8 g/ha
  average phytotox value: 0%
[2]; 15.6 g/ha
  average phytotox value: 16%
Brassica napus wildtype [3]; 5*10^-8M
  average phytotox value: 75%
Brassica napus wildtype [3]; 10^-6M
  average phytotox value: 91%
Brassica napus wildtype [3]; 10^-7M
  average phytotox value: 80%
Brassica napus wildtype [3]; 10^-8M
  average phytotox value: 46%
Brassica napus wildtype [3]; 10^-9M
  average phytotox value: 4%
[4]; BnaA03g52020D G1015R event 1, 5*10^-8M
  average phytotox value: 50%
[4]; BnaA03g52020D G1015R event 1, 10^-6M
  average phytotox value: 85%
[4]; BnaA03g52020D G1015R event 1, 10^-7M
  average phytotox value: 75%
[4]; BnaA03g52020D G1015R event 1, 10^-8M
  average phytotox value: 0%
[4]; BnaA03g52020D G1015R event 1, 10^-9M
  average phytotox value: 0%
[4]; BnaA03g52020D G1015R event 2, 5*10^-8M
  average phytotox value: 60%
[4]; BnaA03g52020D G1015R event 2, 10^-6M
  average phytotox value: 80%
[4]; BnaA03g52020D G1015R event 2, 10^-7M
  average phytotox value: 75%
[4]; BnaA03g52020D G1015R event 2, 10^-8M
  average phytotox value: 0%
[4]; BnaA03g52020D G1015R event 2, 10^-9M
  average phytotox value: 0%
[4]; BnaA03g52020D G1015R event 3, 5*10^-8M
  average phytotox value: 65%
[4]; BnaA03g52020D G1015R event 3, 10^-6M
  average phytotox value: 80%
[4]; BnaA03g52020D G1015R event 3, 10^-7M
  average phytotox value: 70%
[4]; BnaA03g52020D G1015R event 3, 10^-8M
  average phytotox value: 0%
[4]; BnaA03g52020D G1015R event 3, 10^-9M
  average phytotox value: 0%
[5]; BnaA01g04600D G1012R event 1, 5*10^-8M
  average phytotox value: 30%
[5]; BnaA01g04600D G1012R event 1, 10^-6M
  average phytotox value: 80%
[5]; BnaA01g04600D G1012R event 1, 10^-7M
  average phytotox value: 50%
[5]; BnaA01g04600D G1012R event 1, 10^-8M
  average phytotox value: 10%
[5]; BnaA01g04600D G1012R event 1, 10^-9M
  average phytotox value: 0%
[5]; BnaA01g04600D G1012R event 2, 5*10^-8M
  average phytotox value: 40%
[5]; BnaA01g04600D G1012R event 2, 10^-6M
  average phytotox value: 85%
[5]; BnaA01g04600D G1012R event 2, 10^-7M
  average phytotox value: 70%
[5]; BnaA01g04600D G1012R event 2, 10^-8M
  average phytotox value: 10%
[5]; BnaA01g04600D G1012R event 2, 10^-9M
  average phytotox value: 0%
[5]; BnaA01g04600D G1012R event 3, 5*10^-8M
  average phytotox value: 50%
[5]; BnaA01g04600D G1012R event 3, 10^-6M
  average phytotox value: 85%
[5]; BnaA01g04600D G1012R event 3, 10^-7M
  average phytotox value: 75%
[5]; BnaA01g04600D G1012R event 3, 10^-8M
  average phytotox value: 10%
[5]; BnaA01g04600D G1012R event 3, 10^-9M
  average phytotox value: 0%
[6]; 3.9 g/ha
  average phytotox value: 7%
[6]; 7.8 g/ha
  average phytotox value: 6%
[6]; 15.6 g/ha
  average phytotox value: 15%
[6]; 31.25 g/ha
  average phytotox value: 29%
